# Results published in publication PMC4336329 (PLoS ONE, 2015).
# In all, about 310,000 compounds went through this assay and about 14,000 (4.5%) showed an effect of 50% or more. Effects have a minus sign here. This is one part of the list.
# Biological target: human ether-à-go-go-related gene (hERG) potassium channel (human, UniProt Q12809)
# Experiment: primary screen, population patch clamp on CHO cells stably expressing hERG
# 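Further: peak tail current of the secondary pulse compared with the same well before compound.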
# Chain of human ether-à-go-go-related gene (hERG) potassium channel (Q12809 whole entry, looked up): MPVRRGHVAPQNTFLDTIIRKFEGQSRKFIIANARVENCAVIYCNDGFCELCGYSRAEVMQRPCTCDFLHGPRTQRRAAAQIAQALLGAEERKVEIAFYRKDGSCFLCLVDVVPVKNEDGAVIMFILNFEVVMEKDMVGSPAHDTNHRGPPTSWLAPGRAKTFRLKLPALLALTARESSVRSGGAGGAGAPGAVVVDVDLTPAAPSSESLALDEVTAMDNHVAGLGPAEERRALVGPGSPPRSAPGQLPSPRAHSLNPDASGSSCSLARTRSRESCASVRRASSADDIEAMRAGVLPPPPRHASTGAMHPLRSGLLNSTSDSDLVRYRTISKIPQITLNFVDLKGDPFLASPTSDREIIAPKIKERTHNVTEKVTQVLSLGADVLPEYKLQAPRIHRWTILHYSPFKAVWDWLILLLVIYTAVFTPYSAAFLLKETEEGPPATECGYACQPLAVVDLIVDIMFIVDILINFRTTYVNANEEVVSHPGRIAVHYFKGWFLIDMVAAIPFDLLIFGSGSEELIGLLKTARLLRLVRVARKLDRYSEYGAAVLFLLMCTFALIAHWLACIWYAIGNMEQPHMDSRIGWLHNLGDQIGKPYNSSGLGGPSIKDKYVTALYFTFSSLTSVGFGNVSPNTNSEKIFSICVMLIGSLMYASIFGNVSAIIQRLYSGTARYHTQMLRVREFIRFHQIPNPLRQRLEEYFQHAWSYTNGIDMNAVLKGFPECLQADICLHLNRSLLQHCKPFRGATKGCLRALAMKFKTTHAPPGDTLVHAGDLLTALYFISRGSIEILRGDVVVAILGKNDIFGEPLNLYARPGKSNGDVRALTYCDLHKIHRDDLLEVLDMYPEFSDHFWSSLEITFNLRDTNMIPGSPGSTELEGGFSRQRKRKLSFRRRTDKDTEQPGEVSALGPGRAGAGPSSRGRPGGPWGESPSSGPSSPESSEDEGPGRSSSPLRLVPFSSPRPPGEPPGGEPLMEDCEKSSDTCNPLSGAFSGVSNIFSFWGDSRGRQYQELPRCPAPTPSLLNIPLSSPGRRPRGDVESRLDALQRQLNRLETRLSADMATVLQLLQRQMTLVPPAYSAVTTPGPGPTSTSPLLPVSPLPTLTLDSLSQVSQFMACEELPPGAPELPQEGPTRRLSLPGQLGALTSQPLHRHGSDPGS
row,Structure (SMILES),"hERG current change (%, negative = inhibition) at 10uM [%]"
1,COc1ccc(C(=O)Cc2cc(OC)c(OC)cc2[N+](=O)[O-])c(OC)c1,11.1
2,COc1ccc(C2c3[nH]c4ccccc4c3CCN2C(=O)c2ccccc2C(C)=O)c(F)c1 (centres unmarked),15.9
3,Cc1ccc(NC(=O)C(C)N2CCc3ccccc3C2)cc1 (centres unmarked),-16.4
4,CC(C)(C)c1ccc(N2C(=N)SCC2=O)cc1,-0.538
5,Cc1nc2ccccc2c(=O)n1-c1ccc(Br)cc1[N+](=O)[O-],4.41
6,COc1ccc(OC(=O)Nc2ccc([N+](=O)[O-])cc2OC)cc1,12.8
7,O=c1c2ccccc2nc(-c2ccc(-c3ccccc3)cc2)n1-c1ccncc1,-42.9
8,CCN(CC)CCN1C(=O)C2C(C(=O)Nc3cccc(SC)c3)C3C=CC2(O3)C1C(=O)NC1CCCC(C)C1C (centres unmarked),-49.7
9,CC(=O)Nc1ccc(S(=O)(=O)N2c3ccc(F)cc3CCC2C)cc1 (centres unmarked),-18.4
10,O=C1CC2(CCCCCC2)Oc2ccccc21,-6.74
11,CCC(C)[C@H](NC(=O)[C@@H]1CSC2c3ccccc3C(=O)N21)C(=O)N1CCCCC1 (some centres unmarked),2.86
12,O=C(O)CC12CC3CC(C1)CC(n1ncc(NCc4ccccc4)c(Cl)c1=O)(C3)C2,13.4
13,Cn1c(SCC(=O)Nc2ccc(N3CCOCC3)c(Cl)c2)nnc1-c1ccccc1,2.49
14,Cc1cc(Oc2ccc(=O)n(C)n2)nc(SCc2ccccc2)n1,25.7
15,COc1ccc(CN2CCC(C(=O)Nc3ccc(Oc4ccccc4)nc3)CC2)cc1F,-71.6
16,Cc1cnc(NC(=O)CCCc2nc3ccccc3s2)s1,-6.98
17,COc1ccc(CCN2CCCn3c2nc2c3c(=O)n(CC(N)=O)c(=O)n2C)cc1OC,20.8
18,COC(=O)c1ccc(Cl)cc1NC(=O)/C=C/c1ccc(C)o1,5.78
19,COC(=O)c1[nH]c2ccc(C)cc2c1NC(=O)CN1CCN(C(=O)c2ccccc2)CC1.Cl,-52.1
20,NS(=O)(=O)c1ccc(CCNC(=O)C(=O)Nc2cc3c4c(c2)CC(=O)N4CCC3)cc1,-1.21
21,COC(=O)c1ccc(C)c(NC(=O)Cn2cnc3ccccc3c2=O)c1,-8.34
22,Cn1c(SCC(=O)Nc2nccs2)nnc1-c1ccco1,-5.22

row,Structure (SMILES),"hERG current change (%, negative = inhibition) at 10uM [%]"
1,CCOC(=O)c1cc2sccc2n1CCCN1C(=O)c2ccccc2C1=O,6.01
2,COc1ccccc1Nc1nc(N2CCCC2)nc(N2CCOCC2)n1,20.5
3,Cc1ccccc1NS(=O)(=O)c1ccc(C)c(C(=O)N2CCOCC2)c1,1.47
4,COc1ccccc1CC(=O)Nc1ccc2nc(C)sc2c1,-2.82
5,CCN1CCN(c2cc(C)c3cc(NC(=O)Cc4ccc(OC)c(OC)c4)ccc3n2)CC1,-10.5
6,Cc1nn(C)c(Oc2ccccc2)c1CCNC(=O)CC(C)C,13.6
7,CC1CCN(c2ccc3nnc(CCC(=O)NC(C)C)n3n2)CC1,2.67
8,O=C(CN(C(=O)c1csnn1)c1ccc(Br)cc1)NC1CCCCC1,9.11
9,Nc1cccc(NC(=O)c2ccco2)c1,4.06
10,Clc1ccc(OCc2nnc(SCc3nc4ccccc4[nH]3)n2Cc2ccco2)cc1,-36
11,CCOC(=O)c1c(NC(=O)CN(C)C)sc(C(=O)N(CC)CC)c1C.O=C(O)C(=O)O,-17.6
12,O=S(=O)(c1cc(Cl)ccc1Cl)N1CCCC1,1.83
13,O=C(/C=C/c1ccc(O)c(O)c1)O[C@@H]1C[C@](O)(C(=O)O)C[C@@H](O)[C@H]1O,12
14,O=C(NCc1ccccc1)C1CCC1,30.1
15,CC(C)CN(C(=O)CC1CCCC1)c1c(N)n(Cc2ccccc2)c(=O)[nH]c1=O,6.93
16,COc1ccc(CN(C(=O)c2cc3ccccc3oc2=O)C2CCCC2)cc1,-29.1
17,Nc1nc(SCC(=O)NC2CCCCC2)[nH]c(=O)c1-c1ccccc1,-11.7
18,COC(=O)c1onc(-c2c(Cl)cccc2Cl)c1C(=O)OC,11.5
19,COCCCNC(=S)NNC(=O)c1ccccn1,61.7
20,CCn1c(N)c(C(=O)NCc2ccco2)sc1=S,4.04
21,Cc1ccc(N(CCC#N)C(=O)COC(=O)C2CCN(c3ccc(C(F)(F)F)cn3)CC2)cc1,-6.4
22,Cl.O=[N+]([O-])c1cccc(/C=N\N2CCN(Cc3ccccc3Cl)CC2)c1,-2.78

row,Structure (SMILES),"hERG current change (%, negative = inhibition) at 10uM [%]"
1,COc1ccc(CNC(=O)C(=O)NCCC2CCCCN2S(=O)(=O)c2ccc(C)cc2)cc1 (centres unmarked),-3.21
2,CCC(CC)NC(=O)COC(=O)c1ccc(NS(=O)(=O)c2ccc3c(c2)OCCO3)cc1,-12.3
3,O=C(CNC(=O)Cc1ccccc1)NCc1cccc(C(F)(F)F)c1,15.8
4,COc1ccc(C)cc1-n1nnnc1SCC(=O)NC1CCS(=O)(=O)C1 (centres unmarked),-3.08
5,Cc1ccc(NC(=O)C2CCCN2S(=O)(=O)c2ccc3c(c2)n(C)c(=O)c(=O)n3C)c(C)c1 (centres unmarked),-40.6
6,COc1cccc(C2/C(=C(/O)c3cnn(-c4ccccc4)c3C)C(=O)C(=O)N2CCN(C)C)c1 (centres unmarked),18.2
7,CC(C)(C)NC(=O)C(c1ccc(F)cc1)N(Cc1ccccc1Cl)C(=O)c1ccn[nH]1 (centres unmarked),25.6
8,CCOC(=O)c1ccc(NC(=O)CSc2nnc(Cn3c(=O)sc4ccccc43)n2C)cc1,10.6
9,COc1cccc(CN2CCNC(=O)C2CC(=O)NCC(C)(C)N2CCOCC2)c1OC (centres unmarked),19.7
10,O=C(Nc1nc2ccsc2c(=O)s1)c1ccc(Cl)cc1,8.93
11,Oc1ccccc1Oc1c(F)c(F)nc(N2CCCC2)c1F,-4.15
12,COC(=O)CCC(=O)OC1(C)C(=O)C2=CN(Cc3ccc(OC)cc3)C(c3ccc(OC)cc3)=CC2=C(Br)C1=O (centres unmarked),-58.7
13,CCCC[C@H](CC(=O)c1ccccc1)[C@@H](OC(C)=O)C(=O)Oc1c(C(C)C)cccc1C(C)C,2.69
14,COc1cc(C2N(c3ccccc3)CCN2c2ccccc2)cc(OC)c1OC,3.48
15,COc1ccc(CCNC(=O)c2oc3ccc(S(=O)(=O)N4CCOCC4)cc3c2C)cc1OC,-16.5
16,O=C(CCc1ccccc1)NNc1ccc(F)cc1,13
17,CCOC(=O)C1CCN(C(=O)CNC(=O)c2nn(-c3ccc(OC)c(Cl)c3)c(=O)c3ccccc23)CC1,-55
18,O=C(Nc1cc(F)ccc1F)C1CCN(S(=O)(=O)c2cccc3nonc23)CC1,5.02
19,COC(=O)/C=C/c1oc2ccccc2c1C,7.83
20,COc1ccc(NC(=O)CCC(=O)OCC(=O)c2ccc(Oc3ccc([N+](=O)[O-])cc3)cc2)cc1,15.6
21,CC(C)Sc1nnc([C@H](C)NC(=O)OC(C)(C)C)o1,-7.8
22,N#Cc1c2n(cnc1=O)CCCCC2,21.8

row,Structure (SMILES),"hERG current change (%, negative = inhibition) at 10uM [%]"
1,COc1ccc(CC(=O)NCCc2cnc[nH]2)cc1,17.5
2,COC(=O)c1nc2nc(C)cc(=O)n2[nH]1,20.2
3,COC(=O)COc1ccc(C(C2C(=O)CC(C)(C)CC2=O)C2C(=O)CC(C)(C)CC2=O)cc1,15.8
4,CC(=O)Nc1nonc1NC(=O)CSC1=NCCS1,11.3
5,Clc1ccc(SCc2cn3cccnc3n2)cc1,-15.5
6,CSc1nnc2c(n1)OC(c1ccccn1)N(C(C)=O)c1ccccc1-2 (centres unmarked),1.42
7,Cc1cccc(N2CCN(C(=O)c3ccc(NC(=O)C4CCCO4)cc3)CC2C)c1 (centres unmarked),0.848
8,COc1ccc([N+](=O)[O-])cc1NS(=O)(=O)c1ccc(C)cc1,0.188
9,O=C(NCC(=O)N1CCN(c2ccccc2O)CC1)c1cccs1,3.84
10,Cc1c(C#N)c2ccccc2n1CC(=O)NCC1CCCO1 (centres unmarked),16.8
11,Br.COc1ccc(-c2cn3c(n2)CCC3)cc1,-2.5
12,O=C(CN(C(=O)C1CSC(=O)C1)c1ccc(F)cc1)NCc1ccc2c(c1)OCO2 (centres unmarked),6.05
13,Nc1nnc(SCC(=O)OCC(=O)c2ccccc2Br)s1,22
14,Nc1nonc1OCCCCOc1nonc1N,22.1
15,Cc1ccc(S(=O)(=O)CC(=O)N(CCCN(C)C)c2nc3ccc(C)cc3s2)cc1.Cl,-43.9
16,Cc1ccc(OCC(=O)O)c(-n2nc3ccccc3n2)c1,9.62
17,Cc1ccc(C)c(N2CCN(S(=O)(=O)c3ccc4[nH]c(=O)c(=O)[nH]c4c3)CC2)c1,10.9
18,CCOc1ccccc1NC(=O)Cn1ncc2ccc([N+](=O)[O-])cc21,-3.28
19,Cc1ccc(CNC(=O)Cn2c([N+](=O)[O-])cnc2C)cc1,11.3
20,CN1N=C(C(=O)NC2CCCc3c2cnn3-c2ccc(F)cc2F)CCC1=O (centres unmarked),-1.13
